ChEMBL document CHEMBL1201862, “PubChem BioAssay data set” (2004)

What follows are compounds tested on NCI-H322M (assay: NCI anticancer screen, dose series, 48 h).
`N=C(N)NC(=N)Nc1ccc(S(=O)(=O)O)cc1` was tested, and the GI50 was inactive: > 100 µM.
For `O=C(O)CSc1ccccc1C(=O)O`, the GI50 was inactive: > 100 µM.
In the case of `Oc1cc(-c2ccccn2)nc2cc(F)ccc12`, the GI50 is reported as inactive: > 100 µM.
In the case of `N#Cc1cc(-c2nc3c(F)cccc3s2)ccc1N`, the GI50 is reported as inactive: 4.68 µM.
`C[N+](C)(C)/N=C\c1ccc(O)c(O)c1` was tested, and the GI50 was inactive: > 100 µM.
In the case of `CCn1c(CCCc2nc3c(=O)n(C)c(=O)n(C)c3[nH]2)nc2c1c(=O)n(C)c(=O)n2C`, the GI50 is reported as inactive: > 100 µM.
`Cc1ccc(NC(S)=Nc2c(C)n(C)n(-c3ccccc3)c2=O)cc1` was tested, and the GI50 was inactive: > 100 µM.
For `N#Cc1c(N)[nH]c2ccc(Sc3ccccc3)cc12`, the GI50 was active: 0.573 µM.
With `O=C(NCCN1CCCC1)c1cn2c(ccc3sc4ccccc4c(=O)c32)n1` the GI50 was inactive: 6.18 µM.
For `Clc1nc2c(-c3cccs3)ncnc2n1Cc1ccccc1`, the GI50 was inactive: 2.15 µM.
In the case of `O=C1O/C(=C(\Br)c2cccc3ccccc23)c2ccccc21`, the GI50 is reported as inactive: > 34.1 µM.
In the case of `CCOC(=O)/C=C/c1ccccn1`, the GI50 is reported as inactive: > 100 µM.
With `COc1ccc(CNc2cc(=O)n(C)c(=O)[nH]2)cc1` the GI50 was inactive: > 100 µM.
`NC(=O)C(=O)C(c1ccccc1)S(=O)(=O)Cc1ccccc1` (stereo unspecified) was tested, and the GI50 was inactive: > 100 µM.
For `CCOC1c2cc(OC)c(OC)cc2-c2ccc3ccccc3c2N1C` (stereo unspecified), the GI50 was inactive: 16.5 µM.
`COC(=O)c1sc2c(c1C(=O)OC)/C(=N/c1ccc(OC)cc1)S/C2=N\c1ccc(OC)cc1` was tested, and the GI50 was inactive: 1.6 µM.
`O=S1(=O)c2ccccc2NC(c2ccc3ccccc3c2)CC1c1ccccc1F` (stereo unspecified) was tested, and the GI50 was inactive: > 100 µM.
`c1ccc([P+](Cc2csnn2)(c2ccccc2)c2ccccc2)cc1` was tested, and the GI50 was inactive: > 100 µM.
For `NCC(=O)N1CCN(c2nc(N3CCCC3)c3nc(Cl)c(NCc4ccccc4)nc3n2)CC1`, the GI50 was inactive: 1.74 µM.
`O=C(Nc1ccc(Cl)cc1)/C(Cc1cccc[n+]1[O-])=N\Nc1ccc([N+](=O)[O-])cc1[N+](=O)[O-]` was tested, and the GI50 was inactive: > 100 µM.
`OC1C2CN3CCN(C2)CC1(c1ccccc1)C3` (stereo unspecified) was tested, and the GI50 was inactive: > 100 µM.
With `CN(CN1C(=O)C2Cc3ccccc3CN2C1=O)c1ccccn1` (stereo unspecified) the GI50 was inactive: > 100 µM.
In the case of `Cc1cc(O)nc(CNC(=O)c2cccc(C(=O)NCc3cc(O)nc(C)n3)c2)n1`, the GI50 is reported as inactive: > 100 µM.
`Cc1ccc2c(c1)[nH]c(=S)n2/C=C1\C(=O)Oc2ccccc2C1=O` was tested, and the GI50 was inactive: 94.2 µM.
For `O=Cc1cccc2c1Oc1c(cccc1C(=O)O)S2`, the GI50 was inactive: 50.5 µM.
With `O=C(O)C(CS)NCc1c2ccccc2[n+]([O-])c2ccccc12` (stereo unspecified) the GI50 was inactive: 28.6 µM.
`O=C1/C(=C/c2ccc(Br)s2)NC(=S)N1c1ccccc1` was tested, and the GI50 was inactive: 64.1 µM.
With `CCOC(=O)NN(C(=O)OCC)c1ccc(/N=N/c2ccc(OC)cc2)n1C` the GI50 was inactive: 35 µM.
With `N#Cc1nc(C2=C(Cl)c3ccccc3OC2)[nH]c1C#N` the GI50 was inactive: 24.7 µM.
In the case of `C=CCN1C(=O)/C(=C/c2ccc(OC)cc2)N=C1SC/C=C/C`, the GI50 is reported as inactive: > 100 µM.
With `Cc1cn2cc(-c3cccs3)nc2s1` the GI50 was inactive: > 49.7 µM.
`O=P1(O)c2ccccc2Nc2cc(C(F)(F)F)ccc21` was tested, and the GI50 was inactive: > 100 µM.
`CN(C)/C=N/S(=O)(=O)c1nn2c(C=O)c(-c3ccc(-c4ccccc4)cc3)nc2s1` was tested, and the GI50 was inactive: 9.89 µM.
`C=CC1C2=C(C(=O)NCC2)C2OC(O)C3=C(CCNC3=O)C2C1C` (stereo unspecified) was tested, and the GI50 was inactive: > 100 µM.
With `Cc1cc(Br)ccc1/N=N/c1c(C)nn(-c2ccccc2)c1-c1ccccc1` the GI50 was inactive: > 100 µM.
For `CCn1c(=O)c2c3ccc(OC(C)=O)cc3[nH]c2c2ccc(OC(C)=O)cc21`, the GI50 was inactive: 26.2 µM.
In the case of `OCC(O)C(OC1OC(CO)C(O)C(O)C1O)c1nn(-c2ccc(F)cc2)c2nc3cc(Cl)c(Cl)cc3cc12` (stereo unspecified), the GI50 is reported as inactive: > 100 µM.
`O=C1Cc2ccccc2CCc2ccsc21` was tested, and the GI50 was inactive: > 100 µM.
In the case of `COC(=O)C(Cc1ccccc1)OC(=O)C(N)CC(=O)O` (stereo unspecified), the GI50 is reported as inactive: > 100 µM.
With `COc1cc(C2SCC(=O)N2NC(=O)c2ccc(NC(C)=O)cc2OC)ccc1O` (stereo unspecified) the GI50 was inactive: > 100 µM.
For `CC(C)(C)/C(O)=C\c1nc2cc(F)c(F)cc2[nH]c1=O`, the GI50 was inactive: > 100 µM.
`O=S(=O)(N=S(c1ccc(Cl)cc1)c1ccc(Cl)cc1)c1ccccc1` was tested, and the GI50 was inactive: > 100 µM.
With `CN1Cc2c(nc(-c3ccc(Br)cc3)c[n+]2[O-])N(C)C1` the GI50 was inactive: > 100 µM.
In the case of `CC(C)(C)c1cc(C2NC(=O)NC2=O)cc(C(C)(C)C)c1O` (stereo unspecified), the GI50 is reported as inactive: > 100 µM.
For `N#Cc1cc2c(cc1C#N)SCCSCCCSCCS2`, the GI50 was inactive: 31.5 µM.
`COc1cc(-c2[nH]ccc2Cl)oc1C1=C2N=C3C=C2C(C(C)C)C1CCCCCCCC3` (stereo unspecified) was tested, and the GI50 was active: 0.971 µM.
With `COC(=O)N[C@@H]1C[C@H]2CC[C@]1(O[Si](C(C)C)(C(C)C)C(C)C)C(=O)C2` the GI50 was inactive: 14.8 µM.
`c1ccc2c(c1)nc1n2C2CCC(C2)N1` (stereo unspecified) was tested, and the GI50 was inactive: > 10 µM.
For `O=C1Nc2ccccc2/C1=N/Nc1c(F)c(F)c(F)c(F)c1F`, the GI50 was inactive: > 100 µM.
`O=[N+]([O-])c1ccc(NSc2ccccc2)cc1` was tested, and the GI50 was inactive: 70.1 µM.
In the case of `COc1cc(C(=O)C/C(CCC(=O)Nc2ccccc2[N+](=O)[O-])=N\NC(=O)C(N)=O)ccc1O`, the GI50 is reported as inactive: > 100 µM.
In the case of `N#CC1C2CCC3(CC2CCN1C(=O)c1ccccc1)OCCO3` (stereo unspecified), the GI50 is reported as inactive: > 100 µM.
In the case of `Cc1c2c(c(C)n1-c1ccccc1)C(=O)N(CCSC(=N)N)C2=O`, the GI50 is reported as inactive: > 100 µM.
For `N#CCC1(c2ccc(Cl)cc2)NC(=O)c2ccccc21` (stereo unspecified), the GI50 was inactive: > 100 µM.
For `CCOC(=O)C(NC(=O)CC(C)C)(NC(C)C)C(F)(F)F` (stereo unspecified), the GI50 was inactive: > 100 µM.
In the case of `Cc1cc2nc(-c3cc(C(C)(C)C)c(O)c(C(C)(C)C)c3)[nH]c2cc1C`, the GI50 is reported as inactive: > 28.8 µM.
With `CO/N=C(\C(=O)Nc1cncs1)c1csc(N)n1` the GI50 was inactive: > 10 µM.
With `Cc1cc(C[C@H]2O[C@@H]3OC(C)(C)O[C@@H]3[C@H]3OC(C)(C)O[C@H]32)c2ccccc2n1` the GI50 was inactive: > 100 µM.
In the case of `C/C(=N\N=C(\N)SB(F)F)c1ccc2ccccc2c1`, the GI50 is reported as inactive: > 100 µM.
For `COc1cccc([C@@H]2C/C(=N\NC(=O)C(=O)N[C@@H](C)c3ccccc3)c3ccccc3N2)c1`, the GI50 was inactive: > 100 µM.
For `COc1cc(/C=C2\CCC/C(=C\c3ccc(OC(=O)CCCCC4CCSS4)c(OC)c3)C2=O)ccc1OC(=O)CCCCC1CCSS1` (stereo unspecified), the GI50 was inactive: > 100 µM.
In the case of `CCOC(=O)C#Cc1ccccc1`, the GI50 is reported as inactive: 17.6 µM.
With `CNC(=O)Nc1cc2c3c(c1)CCCN3CCC2` the GI50 was inactive: > 10 µM.
For `C=C(C)C(=O)O[C@H]1C/C(CO)=C/CCC(=C)C(OC(C)=O)[C@H]2OC(=O)C(=C)[C@H]12` (stereo partly specified), the GI50 was inactive: 31.3 µM.
With `COC(=O)c1ccc(/C=C2\CCc3ccccc3C2=O)cc1` the GI50 was inactive: > 100 µM.
In the case of `COC(=O)c1ccccc1N(C(=O)c1ccccc1)c1ccccc1C`, the GI50 is reported as inactive: 59.3 µM.
In the case of `CC[C@@]1(O)C(=O)OCc2c1cc1n(c2=O)Cc2c-1nc1ccccc1c2/C=N\NC(=O)C1CCCN1` (stereo partly specified), the GI50 is reported as inactive: 6.64 µM.
`CCO/C=N/C1=C(C#N)C(c2ccc(OC)c(OC)c2)c2c(-c3ccccc3)nn(-c3ccccc3)c2O1` (stereo unspecified) was tested, and the GI50 was inactive: 19.9 µM.
For `N#Cc1ccc(Oc2cccc(Oc3ccccc3)c2)cc1C#N`, the GI50 was inactive: > 10 µM.
In the case of `COC(=O)C(=O)C(C(=O)C=C(C)C)C(=O)C(=O)Nc1cc(C(F)(F)F)ccc1Cl` (stereo unspecified), the GI50 is reported as inactive: > 100 µM.
With `COc1ccc(C(=O)/C=C2\c3ccccc3C(=O)N2C)cc1` the GI50 was inactive: 49.3 µM.
In the case of `CCN(CC)c1c(C(C)(C)C)c(=O)n2ccsc2c1OC(C)=O`, the GI50 is reported as inactive: 17.9 µM.
With `Cc1ccc(NC(=O)NC23CC4CC(CC(F)(C4)C2)C3)cc1` the GI50 was inactive: > 100 µM.
`N#Cc1c(N)nc(-c2ccc(Cl)cc2)c2c1-c1ccccc1S(=O)(=O)CC2` was tested, and the GI50 was inactive: > 100 µM.
In the case of `NCCCN(CCCN)CCCNCc1c2ccccc2c(CNCCCN(CCCN)CCCN)c2ccccc12`, the GI50 is reported as inactive: 13.2 µM.
`O=C1/C(=C\c2ccc([N+](=O)[O-])cc2)N(S(=O)(=O)c2ccccc2)c2ncccc21` was tested, and the GI50 was inactive: 41.4 µM.
For `C1C2CC3CC1CC(Nc1nc(NC45CC6CC(CC(C6)C4)C5)nc(NC45CC6CC(CC(C6)C4)C5)n1)(C2)C3`, the GI50 was inactive: 21.9 µM.
`CC(=O)NCCC1CN(C(=O)/C=C\C#C[Si](C)(C)C)c2ccccc21` (stereo unspecified) was tested, and the GI50 was inactive: 30.2 µM.
`C=CC[P@]1(=O)O[C@H](c2ccccc2)[C@H](C)N1C` was tested, and the GI50 was inactive: > 100 µM.
In the case of `CCCCCCCCOCC(COC(=O)CCCCCCC)OC(=O)CCCCCCC` (stereo unspecified), the GI50 is reported as inactive: > 100 µM.
For `COC(=O)/C=C\C(C#N)(C#N)/N=C/c1ccc(C)cc1`, the GI50 was inactive: 19.8 µM.
For `CC(C)C(Sc1nc(-c2ccccc2)c(-c2ccccc2)[nH]1)c1n[nH]c(=S)n1-c1ccccc1` (stereo unspecified), the GI50 was inactive: 46.7 µM.
For `C[C@@H]1CCC2[C@@H](C)[C@@H](OCCO[C@H]3OC4O[C@@]5(C)CCC6[C@H](C)CCC([C@H]3C)[C@@]46OO5)OC3O[C@@]4(C)CCC1[C@]32OO4` (stereo partly specified), the GI50 was inactive: > 100 µM.
In the case of `Cc1ccc2c(c1)C(=O)/C(=C\c1ccccc1)CCS2(=O)=O`, the GI50 is reported as inactive: 13.5 µM.
`CCOC(=O)Cn1nnc2ccc(Nc3nc4ccccc4nc3C(=O)OCC)cc21` was tested, and the GI50 was inactive: > 100 µM.
With `COC(=O)C1=C(C(=O)OC)C2(CCCCCC2=O)OC1=O` (stereo unspecified) the GI50 was inactive: > 100 µM.
In the case of `CC(=O)N1c2ccccc2C2=NN(C)C(=N)SC21` (stereo unspecified), the GI50 is reported as inactive: 88.1 µM.
In the case of `CC(C)C1=CC23CCC4C(C)(C(=O)O)CCCC4(C)C2CC1C1C(=O)N(c2ccc(C(=O)O)cc2)C(=O)C13` (stereo unspecified), the GI50 is reported as inactive: > 100 µM.
For `O=c1ccc(-c2ccc(-n3ccnc3)cc2)nn1CCO`, the GI50 was inactive: > 100 µM.
In the case of `Nc1c2c(nc3ccccc13)-c1ccccc1CCC2`, the GI50 is reported as inactive: 15 µM.
In the case of `OC1CN=C2c3ccccc3C(O)(c3ccc(Cl)cc3)N2C1` (stereo unspecified), the GI50 is reported as inactive: > 100 µM.
With `CC(CC(C)[C@H]1CCC2[C@H]3C(CC(=O)[C@@]21C)[C@@]1(C)CCC(O)C[C@H]1C[C@@H]3O)C(=O)O` (stereo partly specified) the GI50 was inactive: > 100 µM.
In the case of `Nc1ccc2nc(-c3cccc(Cl)c3)cc(O)c2c1`, the GI50 is reported as inactive: 7.73 µM.
For `Cc1ncc([N+](=O)[O-])n1CCNC(=O)Cn1ccnc1[N+](=O)[O-]`, the GI50 was inactive: > 100 µM.
In the case of `CCN(CC)CCC(=O)/C=C/c1ccccc1`, the GI50 is reported as inactive: 21.7 µM.
`N=C(N)N/N=C/c1c(Cl)nc2n1CCS2` was tested, and the GI50 was inactive: 24.4 µM.

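Briefly, cells in 96-well plates were exposed to five compound concentrations for 48 h, and endpoints were estimated by linear interpolation. GI50 is the concentration that inhibits growth by half.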 Calls of active or inactive are those of the source. No stated cut-off is given here; in the data, active = GI50 up to about 1.1 µM and inactive = higher.
